According to paper PMC4964934:
Results are given in words; binding and its absence hold for the method and conditions named. Binding seen in cells or lysates may run through a third protein. Some entries that bind do so weakly or less than the wild type. For part of these data: Where a sequence is shown, tags or fusion partners need not be part of it.

How the values were obtained:
GFP-MLH1 = GFP-MLH1 (UniProt P40692); assay: co-IP; reciprocal direction: IP of GFP-Mlh1 or FLAG-UHRF1 from 293T nuclear lysate mixed with purified 6HIS-TF-UB hMBD4 mutants (500 µg each); MBD4 mutants detected by Western blot; only the binder purified
[1] = target: T1, FLAG-UHRF1, FLAG epitope-tagged human UHRF1 (human) (UniProt Q96T88); assay: as above
T1 sequence: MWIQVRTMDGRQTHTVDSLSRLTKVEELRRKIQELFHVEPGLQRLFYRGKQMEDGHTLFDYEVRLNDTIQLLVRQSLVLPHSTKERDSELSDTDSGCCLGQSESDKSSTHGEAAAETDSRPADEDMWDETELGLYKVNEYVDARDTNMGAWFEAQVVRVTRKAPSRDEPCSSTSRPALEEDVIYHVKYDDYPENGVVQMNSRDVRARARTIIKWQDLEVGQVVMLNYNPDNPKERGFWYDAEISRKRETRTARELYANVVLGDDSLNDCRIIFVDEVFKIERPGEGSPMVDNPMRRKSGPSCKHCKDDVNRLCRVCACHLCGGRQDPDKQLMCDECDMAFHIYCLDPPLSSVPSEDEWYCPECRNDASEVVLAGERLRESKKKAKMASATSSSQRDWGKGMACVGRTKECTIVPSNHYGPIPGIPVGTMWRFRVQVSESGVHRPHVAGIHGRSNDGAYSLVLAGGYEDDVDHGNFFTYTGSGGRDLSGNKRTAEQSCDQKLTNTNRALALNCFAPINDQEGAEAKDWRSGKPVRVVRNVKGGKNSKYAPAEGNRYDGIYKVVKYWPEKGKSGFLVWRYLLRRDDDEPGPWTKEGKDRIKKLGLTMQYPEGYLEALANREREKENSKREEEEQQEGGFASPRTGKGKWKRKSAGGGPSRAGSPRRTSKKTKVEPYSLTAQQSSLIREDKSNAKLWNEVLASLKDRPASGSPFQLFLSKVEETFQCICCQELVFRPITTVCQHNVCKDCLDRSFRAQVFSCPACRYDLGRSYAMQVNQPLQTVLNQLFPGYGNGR

[2] = target: T1, FLAG-UHRF1, FLAG epitope-tagged human UHRF1 (human); assay: co-IP; ectopic proteins in HEK293T; MNase-treated nuclear extract (300 mM NaCl); anti-FLAG sepharose beads, 2 h at 4°C; Western blot
[3] = target: FLAG-hMBD4 (SF-TAP-hMBD4), human full-length MBD4 (human) (UniProt O95243); assay: as above
[4] = target: GFP-mMBD4, GFP epitope-tagged mouse MBD4 (mouse) (UniProt Q9Z2D7); assay: co-IP; ectopic proteins in HEK293T; nuclear extract without MNase (no chromatin digestion); GFP beads (ChromoTek), 2 h at 4°C; Western blot

binding (GFP-MLH1)	binding [1]	binding [4]	Substance	further results
binds	binds weakly	–	6HIS-TF-UB-hMBD4 mutant 4 (intervening region and the downstream interaction region, 156-455) (from UniProt O95243 156-455) (domain or fragment)	–
binds	–	–	6HIS-TF-UB-hMBD4 mutant 3 (glycosylase domain and its known upstream interaction region, amino acid 408-580) (from UniProt O95243 408-580) (domain or fragment)	–

Further lines, the substance ahead of its results:

Substance	binding (GFP-MLH1)	binding [1]	binding [4]	further results
GFP-mMBD4, GFP epitope-tagged mouse MBD4 (from UniProt Q9Z2D7 1-554)	–	–	–	binding [2]: binds
MCherry-USP7 (from UniProt Q93009 1-1102)	–	–	binds	binding [3]: binds
6HIS-TF-UB-hMBD4 mutant 2 (MBD and intervening region, amino acid 1-408) (from UniProt O95243 1-408) (domain or fragment)	binds	binds	–	–
FLAG-p75 (from UniProt O75475 1-530)	–	–	no binding	–
